Measured values taken from the supplement of paper PMC4604168 (melanoma cell lines).
The other results are listed elsewhere or left out. Repeats are few or missing, and single values can be far off.

What was measured:
Test in all cases: cell count relative to DMSO control; melanoma cells; higher = more viable cells
Conditions in all cases: library dose: low library concentration; 72 h; first compound 0.4 µM
[1] = tested on: MZ2-MEL
[2] = tested on: MeWo
[3] = tested on: RPMI7951
[4] = tested on: RVH-421
[5] = tested on: SkMel28
[6] = tested on: SkMel2
[7] = tested on: SkMel30
[8] = tested on: UACC62
[9] = tested on: SkMel5
[10] = tested on: UACC257
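Also: cell number obtained by counting DAPI-stained nuclei in high-throughput microscope images with image analysis software, screen run in 1,536-well plates.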

Structure (SMILES) | cell count [1] | cell count [2] | cell count [3] | cell count [4] | cell count [5] | cell count [6] | cell count [7] | cell count [8] | cell count [9] | cell count [10]
Cn1sc(=O)n(Cc2ccccc2)c1=O + C#Cc1cccc(Nc2ncnc3cc(OCCOC)c(OCCOC)cc23)c1 [erlotinib] (partner dose 0.8 µM) | 97.1% | 80.3% | 82.5% | 103% | 82.7% | 98.3% | 86.9% | 104% | – | –
CCCCCCCCCCCCCCCCCCOP(=O)([O-])OC1CC[N+](C)(C)CC1 [Perifosine] + Cn1cncc1[C@@](N)(c1ccc(Cl)cc1)c1ccc2c(c1)c(-c1cccc(Cl)c1)cc(=O)n2C [tipifarnib] (partner dose 0.01 µM) | – | 87.5% | 36.6% | 80.6% | 74.5% | 74.5% | 89.6% | 77.4% | 111% | 83.5%
C[C@@H](N)c1ccc(C(=O)Nc2ccnc3[nH]ccc23)cc1 + COc1ccc(Cl)c(Nc2nc3ccccc3nc2NS(=O)(=O)c2cccc(NC(=O)C(C)(C)N)c2)c1 [XL147] (partner dose 0.8 µM) | 60.9% | 78.6% | 73.4% | 56.4% | 82.5% | 98.9% | 83.7% | 91.3% | – | –
Cn1sc(=O)n(Cc2ccccc2)c1=O + C=C(c1ccc(C(=O)O)cc1)c1cc2c(cc1C)C(C)(C)CCC2(C)C [Bexarotene] (partner dose 2 µM) | – | 96.4% | 78.4% | 110% | 86.5% | 90.6% | 116% | 96.3% | – | –
C[C@@H](N)c1ccc(C(=O)Nc2ccnc3[nH]ccc23)cc1 + O=C(O)[C@@H]1[O][Sb](=[O])([O][Sb]2(=[O])[O][C@H]([C@H](O)CO)[C@H](O)[C@H](C(=O)O)[O]2)[O][C@H]([C@H](O)CO)[C@@H]1O [stibogluconate] (partner dose 2 µM) | 78.5% | 74.5% | 81% | 93.3% | 68% | 98.9% | 143% | 89.8% | – | –
CCCCCCCCCCCCCCCCCCOP(=O)([O-])OC1CC[N+](C)(C)CC1 [Perifosine] + C=CCNC1=C2C[C@@H](C)C[C@H](OC)[C@H](O)[C@@H](C)/C=C(\C)[C@H](OC(N)=O)[C@@H](OC)/C=C\C=C(/C)C(=O)NC(=CC1=O)C2=O [Tanespimycin] (partner dose 0.002 µM) | 100% | 103% | 51% | 105% | 90.1% | 93.1% | 91.8% | 100% | – | –
CCCCCCCCCCCCCCCCCCOP(=O)([O-])OC1CC[N+](C)(C)CC1 [Perifosine] + C[C@@H](N)c1ccc(C(=O)Nc2ccnc3[nH]ccc23)cc1 [RKI983] (partner dose 0.4 µM) | 87.6% | 83.8% | 70.2% | 88.6% | 84.2% | 82% | 110% | 90.9% | – | –
C[C@@H](N)c1ccc(C(=O)Nc2ccnc3[nH]ccc23)cc1 + Cc1nc(Nc2ncc(C(=O)Nc3c(C)cccc3Cl)s2)cc(N2CCN(CCO)CC2)n1 [dasatanib] (partner dose 0.004 µM) | 49.3% | 90.7% | 78.4% | 50.6% | 59.3% | 80.7% | 107% | 48.6% | – | –
C[C@@H](N)c1ccc(C(=O)Nc2ccnc3[nH]ccc23)cc1 + COc1ccc(C2=N[C@@H](c3ccc(Cl)cc3)[C@@H](c3ccc(Cl)cc3)N2C(=O)N2CCNC(=O)C2)c(OC(C)C)c1 [Nutlin-3] (partner dose 0.1 µM) | 84.1% | 80.9% | 96% | 91.5% | 71.2% | 106% | 127% | 81.5% | – | –
Cn1sc(=O)n(Cc2ccccc2)c1=O + CCN(CC)CCNC(=O)c1c(C)[nH]c(/C=C2\C(=O)Nc3ccc(F)cc32)c1C [sunitinib] (partner dose 0.4 µM) | 105% | 94.5% | 127% | 108% | 110% | 140% | 88.4% | 110% | – | –
Cn1sc(=O)n(Cc2ccccc2)c1=O + NC(=O)c1ccc(N(C(N)=O)c2c(F)cccc2F)nc1-c1ccc(F)cc1F [VX702] (partner dose 0.4 µM) | 101% | 86.7% | 94% | 87.1% | 100% | 2.21% | 126% | 105% | – | –
